Measurements published in article PMC4336329 (PLoS ONE, 2015).
About 2,200 (0.71%) of roughly 310,000 compounds showed an effect of 50% or more. The effect is printed as a negative number. Some of the results follow.

molecular target: human ether-à-go-go-related gene (hERG) potassium channel (human, UniProt Q12809); assay: primary screen, population patch clamp on CHO cells stably expressing hERG
Sequence (Q12809 whole entry, looked up): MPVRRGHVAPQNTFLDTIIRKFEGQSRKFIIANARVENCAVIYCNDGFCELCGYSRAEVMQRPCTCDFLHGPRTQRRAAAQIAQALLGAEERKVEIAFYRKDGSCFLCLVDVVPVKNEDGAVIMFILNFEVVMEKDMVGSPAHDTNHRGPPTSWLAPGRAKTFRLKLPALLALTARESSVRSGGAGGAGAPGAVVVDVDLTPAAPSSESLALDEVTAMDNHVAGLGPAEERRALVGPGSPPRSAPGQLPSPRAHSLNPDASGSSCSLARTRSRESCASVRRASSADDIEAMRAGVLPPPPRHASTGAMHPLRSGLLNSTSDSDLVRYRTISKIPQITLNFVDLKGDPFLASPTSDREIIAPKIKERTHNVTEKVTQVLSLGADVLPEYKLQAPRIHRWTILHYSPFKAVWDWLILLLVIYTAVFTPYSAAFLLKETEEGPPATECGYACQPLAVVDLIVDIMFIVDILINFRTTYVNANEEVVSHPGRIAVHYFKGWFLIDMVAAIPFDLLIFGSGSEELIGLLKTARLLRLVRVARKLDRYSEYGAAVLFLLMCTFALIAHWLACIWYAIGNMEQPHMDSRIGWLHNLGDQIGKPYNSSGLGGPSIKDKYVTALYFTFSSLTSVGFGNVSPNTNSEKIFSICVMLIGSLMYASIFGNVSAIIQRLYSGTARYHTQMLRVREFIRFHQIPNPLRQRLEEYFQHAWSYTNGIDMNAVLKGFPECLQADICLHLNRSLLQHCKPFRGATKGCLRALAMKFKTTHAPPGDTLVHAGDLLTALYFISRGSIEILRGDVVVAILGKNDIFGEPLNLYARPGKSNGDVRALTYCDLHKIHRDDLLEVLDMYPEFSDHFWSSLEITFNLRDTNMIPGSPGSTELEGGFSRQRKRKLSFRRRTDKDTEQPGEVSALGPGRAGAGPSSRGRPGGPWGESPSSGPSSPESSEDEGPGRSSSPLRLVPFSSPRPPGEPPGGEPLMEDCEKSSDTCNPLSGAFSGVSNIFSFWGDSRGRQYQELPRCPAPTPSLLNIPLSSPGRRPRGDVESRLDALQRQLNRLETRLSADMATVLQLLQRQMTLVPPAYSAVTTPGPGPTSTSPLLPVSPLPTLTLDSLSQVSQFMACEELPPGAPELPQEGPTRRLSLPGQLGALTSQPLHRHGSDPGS

| SMILES | hERG current change (%, negative = inhibition) at 1uM [%] |
| --- | --- |
| Cc1cc(C)nc(CCNC(=O)c2cc(COc3c(C)cccc3C)on2)n1 | -2.06 |
| CCOc1ccc(NC(=O)CN(C)C(=O)CCNC(=O)c2ccc(Br)cc2)cc1OCC | -10.4 |
| Cc1cc(C)c(S(=O)(=O)c2ccccc2C)c(N(C)C)n1 | 15.6 |
| CCCNC(=O)CN(C1CCCCC1)S(C)(=O)=O | 19.8 |
| C=C1C(=O)[C@@]23C[C@H]4[C@@H]5[C@@]6(C)CCC[C@@]57[C@@H]2[C@@H](O)[C@@H]1C[C@H]3[C@H]7N4C6 | 13.2 |
| CCCNC(=S)Nc1ccc(F)cc1F | 13.7 |
| CC1CCCCC1NC(=O)COc1ccccc1C#N (stereo not drawn) | 5.57 |
| CC1=C(C)CC(C(=O)N2CCN(C/C=C/c3ccccc3)CC2)C(C(=O)O)C1 (stereo not drawn) | 10.8 |
| CN(Cc1cnn(C)c1)C(=O)c1cc2ccccc2oc1=O | 4.52 |
| CC(Oc1ccc(Cl)cc1)c1ccn[nH]1 (stereo not drawn) | 14 |
| CO/N=C(/c1nonc1N)N1CCN(c2ccc([N+](=O)[O-])cc2)CC1 | 1.65 |
| COC(=O)c1cc(C)sc1NC(=O)c1cccnc1 | 15.4 |
| COc1cccc(C(=O)Nc2c3c(nn2-c2cccc(C)c2C)CS(=O)C3)c1OC (stereo not drawn) | 6.72 |
| O=C(c1cn(-c2ccccc2)nc1-c1ccncc1)n1nnc2ccccc21 | 9.61 |
| Cc1ccc(/C=C/S(=O)(=O)NCCC(=O)NCc2ccc(F)cc2)cc1 | -1.98 |
| O=C(CN1CCN(C(C(=O)Nc2ccc(F)cc2)c2ccccc2)CC1)NC1CC1 (stereo not drawn) | -2.24 |
| CN(C)S(=O)(=O)c1ccc(Cl)c(C(=O)NNC(=O)c2ccc3c(c2)OCO3)c1 | 17.2 |
| Cc1cc(Br)c(S(=O)(=O)NCc2cccnc2)cc1C | 8.27 |
| CCN(CC)CC(=O)Nc1scc2c1c(=O)oc1ccccc12 | 10.6 |

| SMILES | hERG current change (%, negative = inhibition) at 1uM [%] |
| --- | --- |
| O=C(Nc1cccc(C(F)(F)F)c1)c1cccnc1N1CCN(CCO)CC1 | -26.4 |
| Cc1nc(N2CCN(C(=O)c3ccco3)CC2)c2c3c(sc2n1)CCC3 | -19.9 |
| COC(=O)c1sc2nc(N)c(C#N)cc2c1N | 17.8 |
| O=C(c1cccc([N+](=O)[O-])c1)c1ccc2c(c1)C(=O)NC2=O | 12.4 |
| COc1ccc2c(c1)C=CC1(O2)N(CCO)c2ccccc2C1(C)C (stereo not drawn) | 10.4 |
| Cc1sc2ncn(CC(=O)NCc3ccco3)c(=O)c2c1-c1ccc(F)cc1 | 10.3 |
| COc1ccc(CN2CN=C(Nc3nc4ccccc4s3)NC2)cc1 | -1.19 |
| Fc1ccc(Cn2c(SCc3ccc(F)c(F)c3)nnc2C(F)(F)F)cc1 | -14.5 |
| Cc1ccc(NC(=S)N2CCN(S(C)(=O)=O)CC2)cc1 | 22.4 |
| O=C(NC(C(=O)c1ccccc1)N1CCCCCC1)c1ccco1 (stereo not drawn) | 12.7 |
| CC1(C)CC(NC(=O)CC(c2ccccc2)c2ccccc2)CC(C)(C)N1 | 2.61 |
| CCOC(=O)C(Cc1cc(C(C)=O)ccc1OC(C)C)C(=O)OCC | 9.86 |
| O=C(OCc1cc2ccccc2[nH]c1=O)c1cccc([N+](=O)[O-])c1 | 1.84 |
| Cc1ccc(C(C)NC(=O)Cc2cccs2)cc1C (stereo not drawn) | -3.55 |
| C[C@@H](C(=O)NCc1ccco1)N1C(=O)N2CCc3c([nH]c4ccccc34)[C@@]2(C)C1=O | 1.69 |
| Cc1cc(NC(=O)c2ccco2)c(=O)n(Cc2cccc(C(F)(F)F)c2)c1 | 5.53 |
| CCc1cccc(Nc2cc(C)nc3nc(C)nn23)c1 | -10.1 |
| COc1ccc(CCNC(=O)c2ccc(NC3=NC4CS(=O)(=O)CC4S3)cc2)cc1OC (stereo not drawn) | 20.4 |
| CCOC(=O)c1c(NC(=O)c2ccco2)sc2c1CCCCC2 | 11.7 |

| SMILES | hERG current change (%, negative = inhibition) at 1uM [%] |
| --- | --- |
| O=C(NCCS(=O)(=O)N1CCN(c2ccccc2)CC1)C1CC(=O)N(c2ccccc2)C1 (stereo not drawn) | 18 |
| CC(C)(C)C(=O)Nc1nnc(-c2ccccc2)c(-c2ccccc2)n1 | 6 |
| Fc1cccc(F)c1-n1c(CN2CCCCC2)csc1=S | 12.3 |
| Cn1c(=O)[nH]c2nnc(-c3ccc(Cl)c(Cl)c3)nc2c1=O | 5.62 |
| COc1ccccc1CNC(=O)/C=C/C(=O)O | 9.93 |
| c1ccc(CC2CCN(Cc3nc(-c4ccccc4)no3)CC2)cc1 | 3.83 |
| NC(=O)COC(=O)Cc1coc2cc3c(cc12)CCC3 | 11.9 |
| O=C(NCc1cccnc1)C(=O)NCC1OCCCN1S(=O)(=O)c1ccc(F)cc1 (stereo not drawn) | 14.4 |
| CCOc1ccc(C2CC(c3ccc(CC)cc3)Nc3nc(N)nn32)cc1 (stereo not drawn) | 9.21 |
| Cc1ccc(C(=O)/C=C/Nc2cccc([N+](=O)[O-])c2)o1 | 8.58 |
| COC(=O)c1sccc1NC(=O)c1cc(-c2cc(C)ccc2C)nc2ccccc12 | 12.5 |
| COc1ccc(NC(=O)c2sc3nc(C)cc(C)c3c2N)c(OC)c1 | 6.28 |
| CCOC(=O)N1C=CC(C)=C[C@@H]2[C@@H](N3C(=O)c4ccccc4C3=O)C(=O)N21 | 3.34 |
| Cc1ccc(CN2CCN(/N=C\C=C\c3ccccc3)CC2)cc1 | 12.6 |
| OC(CN1CCC(Cc2ccccc2)CC1)c1ccccc1 (stereo not drawn) | -13.3 |
| CCOC(=O)C1(CCCc2ccccc2)CCN(C(=O)CCOC)CC1 | 2.47 |
| CN(C)C(=O)c1cc([N+](=O)[O-])ccc1O | 1.78 |
| O=C(C1=C[C@H](c2ccccc2)C[C@H](OCCCCO)O1)N1CCN(Cc2ccccc2)CC1 | -11.6 |
| Cn1c(=O)c2cc(S(=O)(=O)NCCC(=O)Nc3ccccc3F)ccc2n(C)c1=O | 7.08 |
